According to PubChem BioAssay AID588855 (National Center for Advancing Translational Sciences (NCATS), 2011):
Hit rate of the full screen: of about 410,000 compounds, about 5,000 (1.2%) were called active. The inconclusive results got no clear call from the source; some entries with a clear call stand among them for comparison. Calls come from the whole dose curve; as a rule, active = well fitted inhibition curve with a large enough effect; inconclusive = small, poorly fitted or top-dose-only effect; inactive = no such curve, though single readings can be large or run the other way. Where the call is inconclusive, the potency comes from a doubtful curve fit.
Potency is the fitted concentration of half-maximal effect; tags give direction and shape of the fitted curve.

Test: qHTS for Inhibitors of TGF-b; note: nearly all actives have a fitted effect of over 65% in size
Settings: HepG2 CAGA-GFP TGF-b/SMAD3 reporter, GFP fluorescence, 18 h, TGF-beta stimulated, 500 pg/mL final; series mostly up to 46.1 µM
In short: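 HEPG2 CAGA-GFP cells (1000/well, DMEM with 1% FBS) were pre-incubated 2 h at 37 degrees C, given compound by pin tool, then stimulated with TGF-beta at 500 pg/mL final for 18 h before per-cell GFP fluorescence imaging.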
In the case of `CCN(CC)/C(N)=N/c1nc(C)cc(C)n1`, the Potency is reported as “inactive”.
In the case of `CN(C)c1ccc(C=C2C=C(c3ccccc3)OC2=O)cc1`, the Potency is reported as inconclusive: 35.5 µM [inhibitor, single point].
For `Cn1nnnc1Sc1ncnc2scc(-c3cccc(C(F)(F)F)c3)c12`, the Potency was inconclusive: 10 µM [inhibitor, partial curve, poor fit].
For `CCOc1ccc(-c2cc(C(=O)Nc3ccc(C)c(NS(C)(=O)=O)c3)[nH]n2)c(C)c1`, the Potency was “inactive”.
With `Cc1ccc(C)c(NC(=O)c2cc(S(=O)(=O)NCCC3=CCCCC3)ccc2F)c1` the Potency was inconclusive: 11.2 µM [inhibitor, partial curve, poor fit].
With `COc1ccc2c(c1)CCc1c(C(=O)Nc3c(C)nn(Cc4ccc(C)cc4)c3C)noc1-2` the Potency was inconclusive: 2 µM [inhibitor, full curve, poor fit].
With `CCOc1ccc(Nc2cc(C)nc3nc(C)nn23)cc1` the Potency was inconclusive: 35.5 µM [inhibitor, single point].
With `Cc1ccc(-c2noc(CCC(=O)NC3CCCc4ccccc43)n2)cc1` (stereo unspecified) the Potency was inconclusive: 17.8 µM [inhibitor, single point].
For `CC1(C)CC(=O)C(N=Nc2cc3c(cc2[N+](=O)[O-])OCCO3)=C(O)C1`, the Potency was inconclusive: 11.2 µM [inhibitor, single point].
With `Cc1cc(C)c(C)c(S(=O)(=O)N2CCC(C(=O)Nc3ccc(S(=O)(=O)N4CCOCC4)cc3)CC2)c1C` the Potency was inconclusive: 22.4 µM [inhibitor, single point].
With `CC(C)CC(CC(C)C)=NNC(=O)c1ccc2c(c1)OCO2` the Potency was “inactive”.
In the case of `COc1ccc(OC)c(-c2csc(NC(=O)Cc3ccc(F)cc3)n2)c1`, the Potency is reported as inconclusive: 35.5 µM [inhibitor, single point].
For `CCc1noc(C)c1C(=O)Nc1cccc(S(=O)(=O)N(C)c2ccccc2)c1`, the Potency was “inactive”.
For `O=C(Cn1ncc2c(=O)oc3ccccc3c21)NCc1ccc(Cl)cc1`, the Potency was “inactive”.
With `CC(=O)N1CCCc2cc(S(=O)(=O)N(C)CC(=O)Nc3ccc(Cl)cc3C)ccc21` the Potency was “inactive”.
For `CCc1ccc(C(C(=O)NC2CCCC2)N(C(=O)/C=C/C(=O)Nc2cc(C)on2)c2ccccc2C)cc1` (stereo unspecified), the Potency was inconclusive: 15.8 µM [inhibitor, single point].
For `CC1(C)Cc2nc3nc(SCC(=O)Nc4ccccc4)nc(N)c3cc2CO1`, the Potency was “inactive”.
In the case of `O=C1c2ccccc2C(=O)c2c1ncn2-c1ccccc1`, the Potency is reported as inconclusive: 8.91 µM [inhibitor, partial curve, poor fit].
With `CCOC(=O)c1c(CSc2cccs2)n(C)c2cc(Br)c(O)c(CN(C)C)c12` the Potency was inconclusive: 22.4 µM [inhibitor, single point].
In the case of `C(=N\Nc1nc2ccccc2[nH]1)/c1ccccc1`, the Potency is reported as “inactive”.
For `Cc1cc(=O)oc2cc(NC(=O)C(C)Oc3cccc(Cl)c3)ccc12` (stereo unspecified), the Potency was inconclusive: 35.5 µM [inhibitor, single point].
In the case of `CC1Cc2ccccc2N1CC(=O)Nc1ccc(Cl)c(S(=O)(=O)N(C)C)c1` (stereo unspecified), the Potency is reported as inconclusive: 35.5 µM [inhibitor, single point].
With `COc1cccc2sc(N(Cc3cccnc3)C(=O)C3COc4ccccc4O3)nc12` (stereo unspecified) the Potency was inconclusive: 6.31 µM [inhibitor, partial curve, poor fit].
For `C=CC1CN(CC(=O)OC)S(=O)(=O)c2ccccc21` (stereo unspecified), the Potency was inconclusive: 0.794 µM [inhibitor, full curve, poor fit].
For `Cc1cccc(-n2nnnc2S(C)(=O)=O)c1`, the Potency was inconclusive: 5.62 µM [inhibitor, full curve, poor fit].
For `ClC(Cl)(c1nnnn1-c1ccccc1)c1nnnn1-c1ccccc1`, the Potency was inconclusive: 20 µM [inhibitor, single point].
For `Cc1ccc(NC(=O)CN(C)S(=O)(=O)c2cccc3nsnc23)cc1C`, the Potency was “inactive”.
With `CCCN1C(=O)C(=O)N(CC(=O)N2c3ccccc3NC(=O)CC2C)C1=O` (stereo unspecified) the Potency was “inactive”.
For `CC(C)Cc1nnc(NC(=O)CCC(=O)N2CCN(C3CCCC3)CC2)s1`, the Potency was inconclusive: 25.1 µM [inhibitor, partial curve, poor fit].
With `Cc1ccc(OCc2nc3ccccc3n2Cc2ccccc2Cl)cc1` the Potency was inconclusive: 35.5 µM [inhibitor, single point].
With `COc1ccc(Br)cc1CNC(=O)C1CCCCN1S(=O)(=O)c1ccc(F)cc1` (stereo unspecified) the Potency was inconclusive: 12.6 µM [inhibitor, single point].
For `COc1cccc(OCC(=O)N(Cc2nc(-c3ccc(Cl)cc3)no2)C(C)C)c1`, the Potency was inconclusive: 28.2 µM [inhibitor, single point].
With `CC(=O)c1ccc(NC(=O)CSc2nnc(Cn3c(=O)sc4ccccc43)n2C)cc1` the Potency was “inactive”.
In the case of `COc1ccc(CNC(=O)C(C)OC(=O)c2cccc(N(C)C)c2)cc1` (stereo unspecified), the Potency is reported as “inactive”.
With `CN(C)c1nc(NCc2ccccc2)nc(SCC(=O)Nc2ccccc2)n1` the Potency was inconclusive: 11.2 µM [inhibitor, partial curve, poor fit].
For `COCCNC(=O)CN1C(=O)NC2(CCCc3cc(OC)ccc32)C1=O` (stereo unspecified), the Potency was “inactive”.
With `Cc1cc(C)c(Cn2c(C(O)c3ccccc3)nc3ccccc32)c(C)c1` (stereo unspecified) the Potency was active: 15.8 µM.
With `CC(=O)n1cc([C@H]2C=C(C(=O)NCc3ccccc3)O[C@@H](OCc3ccc(CO)cc3)C2)c2ccccc21` the Potency was inconclusive: 22.4 µM [inhibitor, single point].
For `CCOc1ccc(-c2c(C(=O)N/N=C/c3c[nH]c4ccccc34)nnn2-c2nonc2N)cc1`, the Potency was inconclusive: 11.2 µM [inhibitor, partial curve].
For `Cc1cccc(NC(=O)c2c([N+](=O)[O-])cnn2C)c1`, the Potency was “inactive”.
In the case of `CC(C)C[C@H](NC(=O)Nc1ccc(Oc2ccccc2)cc1)C(=O)O`, the Potency is reported as “inactive”.
For `CCCS(=O)(=O)NC(=O)C1(C)CCN(C(=O)c2ccccc2F)C1` (stereo unspecified), the Potency was “inactive”.
For `CC(C)C1C(=O)N(Cc2cn(Cc3ccco3)nn2)CCS(=O)(=O)N1Cc1ccc(-c2ccc(F)nc2)cc1` (stereo unspecified), the Potency was “inactive”.
In the case of `Cc1cc(NC(=O)Cn2nc(C(F)(F)F)c3c2CCCC3)no1`, the Potency is reported as inconclusive: 0.316 µM [inhibitor, full curve, poor fit].
For `CC1CN(C(=O)c2ccccc2Sc2ccccc2C#N)CC(C)O1` (stereo unspecified), the Potency was inconclusive: 35.5 µM [inhibitor, partial curve, poor fit].
For `COc1ccccc1CC(=O)N1CCN(c2cccc(C(F)(F)F)c2)CC1`, the Potency was inconclusive: 35.5 µM [inhibitor, single point].
With `CC(C)(C)C(=O)Nc1cccc(C(=O)OCc2cc(=O)n3nc(C4CCCCC4)sc3n2)c1` the Potency was inconclusive: 3.16 µM [inhibitor, single point].
With `C/C(=N\NC(=O)COc1ccccc1-c1ccccc1)c1ccc(O)cc1O` the Potency was inconclusive: 8.91 µM [inhibitor, partial curve, poor fit].
With `CCC(=O)N1CCc2cc(Br)cc(S(=O)(=O)NCCc3ccccc3)c21` the Potency was inconclusive: 22.4 µM [inhibitor, single point].
With `CN(Cc1ccccc1)c1ccc(/C=C/c2ccnc3ccccc23)cc1` the Potency was inconclusive: 0.794 µM [inhibitor, full curve, poor fit].
For `S=C(NCc1cccs1)Nc1cc(Cl)cc(Cl)c1`, the Potency was active: 22.4 µM.
In the case of `O=C(NCCCN1CCN(c2ccccc2F)CC1)c1nnc(Cc2ccc(Cl)cc2Cl)o1`, the Potency is reported as active: 11.2 µM.
In the case of `COc1ccccc1-c1c(-c2ccc(OCC(=O)NN)cc2O)n[nH]c1C(F)(F)F`, the Potency is reported as “inactive”.
For `CCOC(=O)C(=Cc1ccc(-n2ccnc2)cc1)C(=O)OCC`, the Potency was inconclusive: 25.1 µM [inhibitor, single point].
With `C=CCn1cc(C(=O)N2CCN(C)CC2)c(=O)c2cc(S(=O)(=O)N(CC)CC)ccc21` the Potency was “inactive”.
For `COc1ccc(CC(N)c2csc(NC(=O)NCCc3ccccc3)n2)cc1` (stereo unspecified), the Potency was inconclusive: 22.4 µM [inhibitor, partial curve, poor fit].
In the case of `COc1ccc(COn2nnc3ccc(S(=O)(=O)N4CCOCC4)cc32)cc1F`, the Potency is reported as “inactive”.
In the case of `CC(=O)O[C@H]1C(=O)[C@@]2(C)C([C@H](OC(=O)c3ccccc3)[C@]3(O)C[C@H](OC(=O)[C@H](O)[C@@H](NC(=O)c4ccccc4)c4ccccc4)C(C)=C1C3(C)C)[C@]1(OC(C)=O)CO[C@@H]1C[C@H]2O` (stereo partly specified), the Potency is reported as inconclusive: 7.94 µM [inhibitor, partial curve, poor fit].
In the case of `Cc1ccc(-c2cnc(C(O)c3ccc(Cl)c(Cl)c3)[nH]2)cc1` (stereo unspecified), the Potency is reported as inconclusive: 20 µM [inhibitor, single point].
For `Cc1ccc(/C=N/N2CCN(Cc3ccccc3)CC2)o1`, the Potency was inconclusive: 14.1 µM [inhibitor, partial curve, poor fit].
In the case of `CC(=O)c1ccc(N2CCN(C(=S)Nc3ccccc3C(F)(F)F)CC2)cc1`, the Potency is reported as inconclusive: 0.562 µM [inhibitor, full curve, poor fit].
For `O=C(Nc1nc(-c2ccc(F)c(F)c2)cs1)c1ccc(OCC2CCCO2)cc1` (stereo unspecified), the Potency was inconclusive: 3.98 µM [inhibitor, partial curve, poor fit].
For `O=C1/C(=C/c2ccccc2)Oc2cc(OC(=O)N3CCOCC3)ccc21`, the Potency was “inactive”.
In the case of `CN(C)S(=O)(=O)c1cccc(NC(=S)Nc2ccc(Cl)cc2Cl)c1`, the Potency is reported as inconclusive: 15.8 µM [inhibitor, single point].
For `COC(=O)c1sc(C(C)(C)C)cc1CS(=O)(=O)c1ccc(Cl)cc1`, the Potency was inconclusive: 35.5 µM [inhibitor, single point].
With `CCCCNC(=O)C1(C)CCCCN1CC(=O)c1ccc(OC)cc1` (stereo unspecified) the Potency was “inactive”.
